From publication PMC10419456, “Interaction of L1CAM with LC3 Is Required for L1-Dependent Neurite Outgrowth and Neuronal Survival” (International Journal of Molecular Sciences, 2023)

Biological target: Recombinant human LC3B (human, UniProt Q9GZQ8)
Experiment: ELISA; recombinant LC3B substrate-coated (25 µL of 10 µg/mL, 384-well plate, overnight 4 °C); increasing concentrations of L1-ICD, CHL1-ICD, L1/Fc or CHL1/Fc for 1 h at room temperature; PBS with MgCl2 and CaCl2, washes with PBST; detected with L1 antibody C-2, CHL1 antibody C-18 or HRP-coupled anti-Fc antibody
Conditions: both partners purified

binding result: binds
B1: L1/Fc, fusion protein of the extracellular domains of L1 and Fc from human IgG (Fc fusion)
chain: not shown
notes: neural cell adhesion molecule L1, mouse, extracellular domains, […]; source: recombinant, production and purification as described [69]
